Laboratory results reported in ChEMBL document CHEMBL1201862, “PubChem BioAssay data set” (2004).
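Following 48 hours of exposure in 96-well plates, responses at five concentrations were used to interpolate endpoints linearly. Abbreviation: GI50, concentration required for 50% inhibition of growth.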 Calls of active or inactive are those of the source. No stated cut-off is given here; in the data, active = GI50 up to about 1.1 µM and inactive = higher.

The molecules below were run on NCI-H322M (assay: growth of human tumour cells (NCI), 48 h).

Row | Compound | GI50
1 | Cc1ccnc2nc(-c3cccc(Cl)c3)cc(O)c12 | active: 0.326 µM
2 | O=c1ncc(F)cn1C1OC(CO)C(O)C1O (centres undefined) | inactive: > 40.2 µM
3 | COc1ccc2[nH]c3nnc(N)c-3nc2c1 | inactive: 11 µM
4 | c1ccc(CCN2CCOCC2)nc1 | inactive: > 100 µM
5 | c1ccc2c(c1)Oc1cccc3cccc-2c13 | inactive: > 100 µM
6 | O=C(Cn1cc(Br)c(=O)[nH]c1=O)c1ccc(-c2ccccc2)cc1 | inactive: 16.5 µM
7 | COc1ccc(N2C(=O)/C(=C/c3ccc(N(CCC#N)CCC#N)cc3C)N=C2/C=C\c2ccccc2)cc1 | inactive: 83.6 µM
8 | CCC(C)C(NC(=O)c1cccc2c(=O)c3ccccc3[nH]c12)C(=O)O (centres undefined) | inactive: > 100 µM
9 | Cc1cccc(-n2c(=S)[nH]c3c(sc(=O)n3-c3ccccc3C)c2=O)c1 | inactive: > 100 µM
10 | COc1cc2c3c4c1OCc1c5c(cc(c1-4)CC3[N+](C)(C)CC2)OCO5 (centres undefined) | inactive: > 100 µM
11 | Cc1ccc(/C=N/Nc2cnccn2)s1 | inactive: > 100 µM
12 | CCN(CC)CSc1nc2ccccc2s1 | inactive: > 100 µM
13 | CC(C)(C)C(O)CC(O)(C(F)(F)F)C(F)(F)F (centres undefined) | inactive: > 100 µM
14 | Brc1ccc(CCNCCN2CCCCC2)cc1 | inactive: 14.3 µM
15 | N/C(=N\N=C\c1cc2ccccc2s1)c1cnccn1 | inactive: > 100 µM
16 | COc1ccc(C(c2c[nH]c3ccc(Br)cc23)c2c[nH]c3ccc(Br)cc23)cc1 | active: 0.278 µM
17 | COC(=O)[C@@H]1CS(=O)(=O)C(C(C)C)N1C(C)=O (some centres undefined) | inactive: > 100 µM
18 | CC1=C2C(=O)OCC23C=COC3(C)O1 (centres undefined) | inactive: 44.6 µM
19 | S=C1ON=C(c2ccccc2)/C1=C/Nc1ccccc1 | inactive: > 100 µM
20 | CC(C)(C)C1=CC(=CC=C2C=CN(CCCCCCCCCCCO)C=C2)C=C(C(C)(C)C)C1=O | inactive: 2.64 µM
21 | Cc1cn(C2CC(n3cc(Cn4cc(Br)c(=O)[nH]c4=O)nn3)C(CO)O2)c(=O)[nH]c1=O (centres undefined) | inactive: 90.4 µM
22 | CCCCCCCCCCCC(=O)OCC1OC(n2cc(F)c(=O)[nH]c2=O)C(N)C(OC(=O)CCCCCCCCCCC)C1O (centres undefined) | inactive: > 100 µM

Row | Compound | GI50
23 | CNC(=S)N/N=C(\C)c1cc(OC)ccc1O | inactive: > 100 µM
24 | CCOC(=O)c1ncn2c1[nH]c(=S)c1ccccc12 | inactive: > 100 µM
25 | CC(C)(C)C(=O)C1CC(=O)c2ccccc2C1=O (centres undefined) | inactive: 20.2 µM
26 | COc1ccc2c3c1OC1C4(CCC5C(C2)N(CC2CC2)CCC351)OCCO4 (centres undefined) | inactive: > 100 µM
27 | CC(C)(C)/N=C\N(C=C(c1ccccc1)c1ccccc1)C1CCCCC1 | inactive: 41.1 µM
28 | N#Cc1c2c([nH]c(=O)c1C#N)CCCC2 | inactive: > 100 µM
29 | CCOC(=O)/C(=N\OC)C(O)C(F)(F)F (centres undefined) | inactive: > 100 µM
30 | O=[N+]([O-])c1ccc(-c2noc(-c3ccc(Cl)cc3)c2C2=NCCN2)cc1 | inactive: > 100 µM
31 | CC(C)=CC(=O)Cc1nc2ccccc2[nH]c1=O | inactive: > 100 µM
32 | CC1(O)CCn2c(=O)c3cc4ccccc4cc3c(=O)n2C1O (centres undefined) | inactive: > 100 µM
33 | COc1ccc(C(C2=C(O)COC2=O)c2cc3c(cc2O)OCO3)cc1OC (centres undefined) | inactive: > 100 µM
34 | Cc1cccc(C(C)(C)C)c1NC(=O)C(=O)C(c1cnc2ccccc2n1)[N+](=O)[O-] (centres undefined) | inactive: > 100 µM
35 | C[C@H]1[C@H](C)N1CC(O)Cn1ccnc1[N+](=O)[O-] (some centres undefined) | inactive: > 100 µM
36 | CC(C)c1cccc(C(C)C)c1N1C(=O)C(=O)C(c2nc3ccccc3o2)C(=O)C1=O | inactive: 75.5 µM
37 | O=C1c2c(O)ccc(O)c2C(=O)c2c(NCCNC(=O)C(O)C(O)C(O)C(O)CO)ccc(NCCNC(=O)C(O)C(O)C(O)C(O)CO)c21 (centres undefined) | active: 0.114 µM
38 | CS(=O)(=O)OCCCSCCSCCCOS(C)(=O)=O | inactive: > 100 µM
39 | CCCCCCCCSC(=O)NCCCC | inactive: > 100 µM
40 | Cc1oc2nc1C(=O)NCc1nc(cs1)C(=O)N[C@H](C(C)C)c1nc(cs1)C(=O)N[C@H]2C | inactive: 95.5 µM
41 | CCN1CCN(c2nc3ccc([N+](=O)[O-])cc3nc2C(=O)c2ccccc2)CC1 | inactive: 31.4 µM
42 | CCC1=C(C(C)=O)[C@@H]2CCCCC[C@@H](C(=O)OC)C2C1=O (some centres undefined) | inactive: > 100 µM
43 | COCC(/N=C\N1CCCc2ccccc2[C@@H]1CCCCl)C(C)(C)C (some centres undefined) | inactive: 4.47 µM
44 | CCOC(=O)NC(Nc1ccc(S(=O)(=O)Nc2ccc(OC)nn2)cc1)(C(F)(F)F)C(F)(F)F | inactive: 43.1 µM
